Test results published in publication PMC4336329 (PLoS ONE, 2015).
In all, about 310,000 compounds went through this assay and about 14,000 (4.5%) showed an effect of 50% or more. The effect is printed as a negative number. Some of the results follow.

The compounds below were run against human ether-à-go-go-related gene (hERG) potassium channel (human, UniProt Q12809) (assay: primary screen, population patch clamp on CHO cells stably expressing hERG).
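Also: peak tail current of the secondary pulse compared with the same well before compound.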

Chain of human ether-à-go-go-related gene (hERG) potassium channel (Q12809 whole entry, looked up): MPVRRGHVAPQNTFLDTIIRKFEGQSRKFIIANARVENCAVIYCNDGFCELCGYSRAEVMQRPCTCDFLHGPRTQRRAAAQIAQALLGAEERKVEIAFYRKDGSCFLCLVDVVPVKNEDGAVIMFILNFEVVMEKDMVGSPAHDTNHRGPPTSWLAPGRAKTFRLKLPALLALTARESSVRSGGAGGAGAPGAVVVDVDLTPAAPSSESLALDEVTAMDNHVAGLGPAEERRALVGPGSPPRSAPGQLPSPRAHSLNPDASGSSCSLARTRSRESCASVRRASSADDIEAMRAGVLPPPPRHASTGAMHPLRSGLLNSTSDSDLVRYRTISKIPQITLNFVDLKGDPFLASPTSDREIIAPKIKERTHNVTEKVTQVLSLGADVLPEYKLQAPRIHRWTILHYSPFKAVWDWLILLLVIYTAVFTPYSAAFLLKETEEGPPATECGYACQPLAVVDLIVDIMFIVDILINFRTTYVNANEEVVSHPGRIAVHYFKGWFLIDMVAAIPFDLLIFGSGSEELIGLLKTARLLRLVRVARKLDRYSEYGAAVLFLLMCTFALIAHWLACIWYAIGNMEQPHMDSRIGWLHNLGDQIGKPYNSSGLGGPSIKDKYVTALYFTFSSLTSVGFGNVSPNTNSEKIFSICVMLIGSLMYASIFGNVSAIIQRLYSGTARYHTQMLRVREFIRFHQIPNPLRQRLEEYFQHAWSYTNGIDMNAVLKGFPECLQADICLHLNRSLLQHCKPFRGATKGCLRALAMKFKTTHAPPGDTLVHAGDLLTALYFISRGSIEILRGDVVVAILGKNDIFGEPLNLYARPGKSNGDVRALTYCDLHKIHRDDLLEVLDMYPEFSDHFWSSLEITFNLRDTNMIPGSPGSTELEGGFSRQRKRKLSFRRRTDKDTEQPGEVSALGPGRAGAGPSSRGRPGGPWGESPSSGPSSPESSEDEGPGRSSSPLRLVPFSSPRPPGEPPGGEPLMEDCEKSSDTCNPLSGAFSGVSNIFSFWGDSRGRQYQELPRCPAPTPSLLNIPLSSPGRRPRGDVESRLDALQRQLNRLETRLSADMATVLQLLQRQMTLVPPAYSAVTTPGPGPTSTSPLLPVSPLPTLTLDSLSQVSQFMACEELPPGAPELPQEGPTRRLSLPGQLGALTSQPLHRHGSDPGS

Structure (SMILES) | hERG current change (%, negative = inhibition) at 10uM [%]
CC(C)C(=O)NC(c1ccccc1Cl)c1c(O)ccc2ccccc12 (stereo not shown) | 7.79
CCOC(=O)CCCNC(=O)CN1C(=O)NC2(CCCCCC2)C1=O | 11.3
C=CCc1ccc(OCC(O)CN2CCN(Cc3ccccc3)CC2)c(OC)c1.Cl (stereo not shown) | -77
Cc1cc(C)c(S(=O)(=O)c2ccc(Cl)cc2)c(Cl)n1 | -2.99
CCn1c(SCC(=O)Nc2cccc(OC)c2)nc2c(c1=O)SCC2 | -36
COc1ccc(C(=O)N2CCCCCCC2)cc1OC1CCN(C(C)C)CC1 | -7.39
CCOC(=O)c1ccc(Nc2nc(C)cc(=O)[nH]2)cc1 | 3.62
CCOC(=O)C1C(c2ccccc2O)NC(=O)NC1(O)C(F)(F)F (stereo not shown) | 16.9
CCS(=O)(=O)N1Cc2ccccc2CC1C(=O)Nc1nnc(C2CC2)s1 (stereo not shown) | -7.05
CN(C)C=O.CN(C)c1ccc(/C=C/c2nc3ccccc3c(=O)n2-c2ccc(C(=O)O)cc2)cc1 | 19.8
Cc1cc(=O)oc2cc(NC(=O)c3ccc(OC(F)F)cc3)ccc12 | 3.2
COc1cccc(CNC(=O)c2cc(S(=O)(=O)N3CCOCC3)cn2C)c1 | -0.819
COc1ccccc1NC(=O)C(=O)N1N=C(C(C)C)CC1(O)C(F)(F)F (stereo not shown) | 11.5
COc1ccc(OCC(=O)Nc2ccc(Cl)cc2C(=O)c2ccccc2)cc1 | 10.4
COc1ccc(NC(=O)COC(=O)CN2C(=O)NC(C)(C)C2=O)cc1 | 2.55
CC(=O)Nc1ccc(NC(C)=C(C#N)C#N)cc1 | 15.8
Cc1ccc2nc(C(C)O)[nH]c2c1 (stereo not shown) | 17.3
Cc1cc(NC(=O)C(C)C)ncc1NC(=O)c1ccco1 | -2.61
CCOC(=O)N1CCN(S(=O)(=O)c2ccc(OCC(=O)OC)c(Cl)c2)CC1 | -16.7
Cc1ccc2oc(-c3ccc(NC(=O)CC(C)C)cc3)nc2c1 | 3.21

Structure (SMILES) | hERG current change (%, negative = inhibition) at 10uM [%]
C/C(=N\NS(=O)(=O)c1ccc([N+](=O)[O-])cc1)c1c[nH]c2ccccc12 | 0.605
CCN(CC)CCOc1ccccc1C(C)=O.O=C(O)C(=O)O | 6.73
O=c1cccc(-c2ccccc2)[nH]1 | -2.53
CCCNC(=O)c1cc2c3ccccc3n(C)c2s1 | -29.5
Cc1cc(=O)oc2cc(Oc3ncccc3[N+](=O)[O-])ccc12 | 1.68
CC(=O)c1ccc(NC(=O)CSc2nnc(C3CC3)n2C)cc1 | 5.6
Cc1cc(NC(=O)CC2Oc3ccccc3NC2=O)ccc1Br (stereo not shown) | 18
Cc1cc(Cl)cc(Cl)c1OCC(=O)NCc1ccco1 | 3.5
CCC(=O)c1ccc(N2CCCC2)c(F)c1 | 6.95
CCOc1ccc(NC2=NCCC(=O)N2Cc2cccs2)cc1.Cl | -2.46
Cc1ccc(S(=O)(=O)NNC(=O)C2CC=CCC2C(=O)O)cc1 (stereo not shown) | 9.94
O=C(N/N=C/c1ccccn1)c1ccc(NC(=O)c2ccccc2Cl)cc1 | -5.08
O=S(=O)(NCc1ccc(Cl)cc1)c1ccc(Cl)nc1 | -9.51
COc1ccccc1OCC(=O)Nc1cc(NC(=O)COc2ccccc2OC)cc(C(=O)O)c1 | 16.9
CCn1c(SCC(=O)NCCc2ccccc2)nc2c(c1=O)SC(C)C2 (stereo not shown) | 5.03
NC(=O)CSc1nnc(-c2ccc(O)cc2)n1Cc1ccco1 | -1.46
CCOC(=O)C1CCCN(C(=O)/C=C/c2cc(OC)c(OC)c(OC)c2)C1 (stereo not shown) | -6.33
Cc1ccc(C(=O)Nc2ccccc2C(=O)N2CCCC2)cc1[N+](=O)[O-] | 2.34
O=C1c2ccccc2NC(c2cccc(O)c2)N1O (stereo not shown) | 14.9
O=C(c1ccc(OC2CCN(C/C=C/c3ccccc3)CC2)cc1)N1CCCCC1 | -53.1

Structure (SMILES) | hERG current change (%, negative = inhibition) at 10uM [%]
Cc1cccc(-c2oc3ccc(-c4ccc5c(c4)OCO5)cc3c2/C=C/c2ccc(N)cc2)c1 | 5.18
Cc1csc(NC(=O)c2cccnc2Cl)n1 | 8.38
CC(C)(C)c1cc(NC(=O)CCl)n(-c2ccccc2)n1 | -2.78
O=C(c1ccccc1)c1ccccc1C(=O)N1CCN(C(=O)c2ccccc2)CC1 | -10.2
COC(=O)C(Cc1ccccc1)NC(=O)c1cc(S(=O)(=O)N(C)C)ccc1Cl (stereo not shown) | 19
N#Cc1ccc(Oc2cnccn2)cc1 | 17.1
CC1Cc2ccccc2N1S(=O)(=O)c1cccc(C(=O)NCc2ccncc2)c1 (stereo not shown) | -34.9
Cc1cccc(NC(=O)C(CCC(N)=O)NC(=O)OCc2ccccc2)c1 (stereo not shown) | 6.48
O=C(CCCn1c(SCc2cccc([N+](=O)[O-])c2)nc2ccccc2c1=O)NCC1CCCO1 (stereo not shown) | -59.7
Cc1csc(NC(=O)CSc2nnc3c4ccccc4nc(C(C)(C)C)n23)n1 | 2.81
C/C(=N\OC(=O)c1cccc(C)c1)c1sc(-c2ccccc2)nc1C | -0.903
COc1cc(NS(=O)(=O)c2ccc(NC(=O)c3ccc(C)o3)cc2)nc(OC)n1 | -9.23
O=C(Nc1ccc(F)cc1)Nc1ccccc1NS(=O)(=O)c1cccs1 | 7.36
Cc1ccn2cc(CCNC(=O)CC(C)(C)C)nc2c1 | -2.43
Cc1cccc(C)c1OP(N)(=O)Oc1c(C)cccc1C | 11
CCn1c(-c2ccccn2)nc2cc(S(=O)(=O)N(C)C)ccc21 | 8.62
O=C(Nc1ccccn1)c1ccc(COc2ccccc2Cl)o1 | -19.9
O=C(COC(=O)c1cccnc1Cl)c1ccc(Cl)cc1Cl | 6.95
